Measured values taken from the supplement of paper PMC8728848.
This is one part of the list.

How the values were obtained:
Assay in all cases: glycan array binding signal (z-score within array); higher = stronger binding
Conditions in all cases: glycan notation: IUPAC condensed, linker removed
[1] = biological target: Gal(a1-6)Glc
In short: (§1)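 Glycan array data were curated from 3228 arrays in the Consortium for Functional Glycomics database and kept only where the protein sequence was available. Glycan names were converted to IUPAC-condensed notation, and columns mapping to the same glycan were averaged. The binding signal is a within-array Z-score, averaged across arrays of the same protein sequence at different concentrations or buffers and across linkers. Negative Z-scores can be read as non-binding.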

[2] = biological target: Gal(b1-2)Gal
In short: as §1

[3] = biological target: Gal(b1-3)Gal
In short: as §1

[4] = biological target: Gal(b1-3)Gal(b1-4)GlcNAc
In short: as §1

[5] = biological target: Gal(b1-3)GalNAc
In short: as §1

[6] = biological target: Gal(b1-3)GalNAc(b1-3)Gal(a1-4)Gal(b1-4)Glc
In short: as §1

[7] = biological target: Gal(b1-3)GalNAc(b1-4)Gal(b1-4)Glc
In short: as §1

[8] = biological target: Gal(b1-3)GalNAc(b1-4)[Neu5Ac(a2-3)]Gal(b1-4)Glc
In short: as §1

[9] = biological target: Gal(b1-3)GlcNAc
In short: as §1

[10] = biological target: Gal(b1-3)GlcNAc(b1-2)Man(a1-3)[Gal(b1-3)GlcNAc(b1-2)Man(a1-6)]Man(b1-4)GlcNAc(b1-4)GlcNAc
In short: as §1

[11] = biological target: Gal(b1-3)GlcNAc(b1-3)Gal(b1-3)GlcNAc
In short: as §1

[12] = biological target: Gal(b1-3)GlcNAc(b1-3)Gal(b1-4)Glc
In short: as §1

[13] = biological target: Gal(b1-3)GlcNAc(b1-3)Gal(b1-4)GlcNAc
In short: as §1

[14] = biological target: Gal(b1-3)[Fuc(a1-4)]GlcNAc
In short: as §1

[15] = biological target: Gal(b1-3)[Fuc(a1-4)]GlcNAc(b1-3)Gal(b1-3)[Fuc(a1-4)]GlcNAc
In short: as §1

[16] = biological target: Gal(b1-3)[Fuc(a1-4)]GlcNAc(b1-3)Gal(b1-4)GlcNAc
In short: as §1

[17] = biological target: Gal(b1-3)[Fuc(a1-4)]GlcNAc(b1-3)Gal(b1-4)[Fuc(a1-3)]GlcNAc
In short: as §1

[18] = biological target: Gal(b1-3)[GlcNAc(b1-6)]GalNAc
In short: as §1

[19] = biological target: Gal(b1-3)[Neu5Ac(a2-6)]GalNAc
In short: as §1

[20] = biological target: Gal(b1-3)[Neu5Ac(a2-6)]GlcNAc(b1-6)Gal(b1-4)Glc
In short: as §1

[21] = biological target: Gal(b1-3)[Neu5Ac(b2-6)]GalNAc
In short: as §1

[22] = biological target: Gal(b1-4)GalNAc(a1-3)[Fuc(a1-2)]Gal(b1-4)GlcNAc
In short: as §1

[23] = biological target: Gal(b1-4)GalNAc(b1-3)[Fuc(a1-2)]Gal(b1-4)GlcNAc
In short: as §1

[24] = biological target: Gal(b1-4)Glc
In short: as §1

[25] = biological target: Gal(b1-4)Glc6S
In short: as §1

[26] = biological target: Gal(b1-4)GlcNAc
In short: as §1

[27] = biological target: Gal(b1-4)GlcNAc(a1-6)Gal(b1-4)GlcNAc
In short: as §1

[28] = biological target: Gal(b1-4)GlcNAc(b1-2)Man(a1-3)[Gal(b1-4)GlcNAc(b1-2)Man(a1-6)]Man(b1-4)GlcNAc(b1-4)GlcNAc
In short: as §1

[29] = biological target: Gal(b1-4)GlcNAc(b1-3)Gal(b1-3)GlcNAc
In short: as §1

[30] = biological target: Gal(b1-4)GlcNAc(b1-3)Gal(b1-4)Glc
In short: as §1

B1: E-Selectin (Homo sapiens), P16581 (protein)
chain: MIASQFLSALTLVLLIKESGAWSYNTSTEAMTYDEASAYCQQRYTHLVAIQNKEEIEYLNSILSYSPSYYWIGIRKVNNVWVWVGTQKPLTEEAKNWAPGEPNNRQKDEDCVEIYIKREKDVGMWNDERCSKKKLALCYTAACTNTSCSGHGECVETINNYTCKCDPGFSGLKCEQIVNCTALESPEHGSLVCSHPLGNFSYNSSCSISCDRGYLPSSMETMQCMSSGEWSAPIPACNVVECDAVTNPANGFVECFQNPGSFPWNTTCTFDCEEGFELMGAQSLQCTSSGNWDNEKPTCKAVTCRAVRQPQNGSVRCSHSPAGEFTFKSSCNFTCEEGFMLQGPAQVECTTQGQWTQQIPVCEAFQCTALSNPERGYMNCLPSASGSFRYGSSCEFSCEQGFVLKGSKRLQCGPTGEWDNEKPTCEAVRCDAVHQPPKGLVRCAHSPIGEFTYKSSCAFSCEEGFELHGSTQLECTSQGQWTEEVPSCQVVKCSSLAVPGKINMSCSGEPVFGTVCKFACPEGWTLNGSAARTCGATGHWSGLLPTCEAPTESNIPLVAGLSAAGLSLLTLAPFLLWLRKCLRKAKKFVPASSCQSLESDGSYQKPSYIL
glycan array binding signal (z-score) [1]: -0.112 | glycan array binding signal (z-score) [2]: -0.172 | glycan array binding signal (z-score) [3]: -0.183 | glycan array binding signal (z-score) [4]: -0.311 | glycan array binding signal (z-score) [5]: -0.291 | glycan array binding signal (z-score) [6]: -0.194 | glycan array binding signal (z-score) [7]: -0.14 | glycan array binding signal (z-score) [8]: -0.141 | glycan array binding signal (z-score) [9]: -0.238 | glycan array binding signal (z-score) [10]: -0.421 | glycan array binding signal (z-score) [11]: -0.26 | glycan array binding signal (z-score) [12]: -0.226 | glycan array binding signal (z-score) [13]: -0.181 | glycan array binding signal (z-score) [14]: -0.191 | glycan array binding signal (z-score) [15]: -0.171 | glycan array binding signal (z-score) [16]: -0.214 | glycan array binding signal (z-score) [17]: -0.082 | glycan array binding signal (z-score) [18]: -0.208 | glycan array binding signal (z-score) [19]: -0.234 | glycan array binding signal (z-score) [20]: -0.147 | glycan array binding signal (z-score) [21]: -0.168 | glycan array binding signal (z-score) [22]: -0.275 | glycan array binding signal (z-score) [23]: -0.285 | glycan array binding signal (z-score) [24]: -0.251 | glycan array binding signal (z-score) [25]: 0.01 | glycan array binding signal (z-score) [26]: -0.195 | glycan array binding signal (z-score) [27]: -0.222 | glycan array binding signal (z-score) [28]: -0.189 | glycan array binding signal (z-score) [29]: 0.024 | glycan array binding signal (z-score) [30]: -0.075
